Source: PubChem BioAssay AID463173 (ICCB-Longwood Screening Facility, Harvard Medical School, 2010)
The campaign covered roughly 52,000 compounds. About 1,700 (3.3%) were called active. Rule as the data show it: active = survival mostly below about 52% (no sharp cut-off); inactive = mostly above about 56%. The list shows a part of the results.

The compounds below were run on Wild type (assay: S. aureus survival, RN4220 and DeltatarO strains – OD600, teichoic acid synthesis inhibitors, primary screen (AID 463173)). Details: S. aureus RN4220 wild type/DeltatarO growth, OD600, 18 h, stronger effect = lower value, screened at 18.75 µg/mL (by protocol).
`Cc1cc(OCC(=O)N/N=C/c2ccc(I)o2)cc(C)c1Cl` was tested, and the survival was inactive: 113%.
`Cc1ccc(-c2noc(CSc3nnc(C)n3-c3ccc(C)c(C)c3)n2)cc1` was tested, and the survival was inactive: 86%.
For `COc1ccc(Cl)cc1NC(=O)CSc1ccc2nnc(CCNS(=O)(=O)c3ccccc3)n2n1`, the survival was inactive: 81%.
For `COc1ccc(/C=C(\C#N)c2nc3ccccc3c(=O)[nH]2)cc1OC`, the survival was inactive: 86%.
In the case of `CCOc1ccc(S(=O)(=O)Nc2ccc3oc4c(c3c2)CC(C)CC4)cc1` (stereo unspecified), the survival is reported as inactive: 60%.
For `CCS(=O)(=O)N1CCN(S(=O)(=O)c2ccc(Cl)cc2)CC1`, the survival was inactive: 111%.
With `COc1ccccc1CNC(=O)COCc1cc(-c2ccc3c(c2)OCO3)on1` the survival was inactive: 19%.
With `COc1cccc(CNS(=O)(=O)c2c(C(=O)N3CCC(C)CC3)c(C)n(C)c2C)c1` the survival was inactive: 70%.
`COc1ccc(C(=O)C2CCN(CC(=O)NCc3ccc(F)cc3)CC2)cc1` was tested, and the survival was inactive: 104%.
With `CC(C)CN(CC(C)C)CC(O)Cn1cc(/C=C/C(=O)c2ccccc2)c2ccccc21` (stereo unspecified) the survival was inactive: 40%.
`O=C(COc1ccc(F)cc1)OCc1cc(=O)n2nc(-c3cccs3)sc2n1` was tested, and the survival was inactive: 64%.
In the case of `COc1cc(NS(=O)(=O)c2c(C)nc3sc(C)c(C)n3c2=O)cc(OC)c1`, the survival is reported as inactive: 90%.
In the case of `CCc1ccc(NC(=O)C2=CC(c3cccs3)=NS(=O)(=O)N2C)cc1`, the survival is reported as inactive: 73%.
With `CCOc1ccccc1CNC(=O)Cn1nc(N2CCN(c3ccccc3)CC2)ccc1=O` the survival was inactive: 82%.
For `COc1ccc(C)c2sc(NC(=O)c3ccc(S(=O)(=O)N4CCCC4)cc3)nc12`, the survival was inactive: 78%.
For `COc1ccc(C(=O)NCc2ccc3c(c2)CCN3C(=O)c2ccc(F)cc2)cc1`, the survival was inactive: 51%.
For `O=C(NCc1ccc(Cl)cc1)NC1COc2ccccc2C1` (stereo unspecified), the survival was inactive: 79%.
`CCOc1ccc(S(=O)(=O)Nc2cccc(-c3ccc(N4CCC(C)CC4)nn3)c2)cc1` was tested, and the survival was inactive: 82%.
For `O=CN1CCN(C(=O)c2ccc(F)cc2)CC1`, the survival was inactive: 109%.
In the case of `CC1CCN(S(=O)(=O)c2ccc3c(c2)N(CC(=O)NCC(C)c2ccccc2)C(=O)CO3)CC1` (stereo unspecified), the survival is reported as inactive: 80%.
In the case of `Cc1c(C(=O)OCc2ccccc2)[nH]c2c1C(=O)CC(c1ccc(Cl)cc1)C2` (stereo unspecified), the survival is reported as inactive: 99%.
With `Cn1nnnc1SCCCNCc1cccc(OCc2ccccc2)c1` the survival was inactive: 94%.
In the case of `O=C(CSc1ncccc1C(=O)Oc1ccccc1Cl)Nc1ccccc1Cl`, the survival is reported as inactive: 80%.
`CN(C)c1ccc(CNC(=O)C2COc3ccccc3C2)cc1` (stereo unspecified) was tested, and the survival was active: 0%.
With `CCOc1cc(S(=O)(=O)N(C)C2CCCCC2)c(OCC)cc1-n1cnnn1` the survival was inactive: 98%.
In the case of `O=C(NCc1ccco1)c1ccc(Cn2c(SCc3ccccc3F)nc3cccnc32)cc1`, the survival is reported as inactive: 74%.
With `O=c1cc2[nH][nH]c(=S)n2c(=O)[nH]1` the survival was inactive: 107%.
`COc1ccc(CCNC(=O)Cn2cc(S(=O)(=O)Cc3ccc(F)cc3)c3ccccc32)cc1OC` was tested, and the survival was inactive: 83%.
With `CCOc1ccccc1NC(=O)C1CCCN1S(=O)(=O)c1ccc2nc(-c3ccccc3)[nH]c2c1` (stereo unspecified) the survival was inactive: 55%.
`O=C(NC1CCCCC1)c1ccc2c(c1)N(Cc1ccccc1Cl)C(=O)c1ccccc1S2` was tested, and the survival was inactive: 125%.
In the case of `S=c1sc2ccccc2n1CN1CCOCC1`, the survival is reported as inactive: 87%.
`Cc1ccc(-c2cc(C(F)(F)F)n3ncc(-c4ccccc4)c3n2)cc1` was tested, and the survival was inactive: 62%.
For `CCOc1ccc(C(=O)c2oc3ccccc3c2NC(=O)c2cc(-c3ccc(C)cc3)on2)cc1`, the survival was inactive: 90%.
For `O=C(CN1C(=O)CSC1=O)N1CCCCC1`, the survival was inactive: 97%.
`O=C(Nc1cccc(F)c1)c1oc2ccccc2c1NC(=O)C12CC3CC(CC(C3)C1)C2` was tested, and the survival was inactive: 86%.
In the case of `O=C(CSc1ncc(-c2ccccc2)n1Cc1ccco1)Nc1cccc(I)c1`, the survival is reported as inactive: 102%.
With `CCCCCn1cc2c(c1-c1ccccc1Br)c(=O)n(C)c(=O)n2C` the survival was inactive: 82%.
With `O=S(=O)(c1ccccc1)c1nnn2c1nc(NCc1ccccc1)c1cc(Cl)ccc12` the survival was inactive: 85%.
`CC(C)c1ccc(NC(=O)CCS(=O)(=O)c2ccc3c(c2)CC(=O)N3C)cc1` was tested, and the survival was inactive: 81%.
In the case of `Cc1nc2nc(C)c(CCC(=O)NCc3ccccc3)c(C)n2n1`, the survival is reported as inactive: 90%.
With `CCOc1ccc2ncc3c(-c4cccc(OC)c4)nn(-c4ccccc4)c3c2c1` the survival was inactive: 125%.
For `Cc1ccc2occ(CC(=O)Nc3ccc(S(=O)(=O)N4CCC(C)CC4)cc3)c2c1`, the survival was inactive: 72%.
With `CCC(C)NC(=O)Cn1c(=O)n(Cc2ccc(C(=O)NCc3ccc(C)cc3)cc2)c(=O)c2ccccc21` (stereo unspecified) the survival was inactive: 70%.
`COc1cccc(Cc2nc3ccccc3nc2SCC(=O)Nc2cc(OC)ccc2OC)c1` was tested, and the survival was inactive: 60%.
For `CCOc1ccccc1CNCCSc1nnnn1C`, the survival was inactive: 74%.
In the case of `CCOCCn1ccc2c(OCC(=O)Nc3cccc(F)c3)cccc2c1=O`, the survival is reported as inactive: 81%.
In the case of `CCOc1cc(-c2ccc(OC(=O)c3ccccc3)c(OC)c2)cc(=O)c2c(C)oc(C)c12`, the survival is reported as inactive: 96%.
In the case of `CCN(CCCNC(=O)CN1N=C(c2ccccc2)CCC1=O)c1ccccc1`, the survival is reported as active: -6%.
In the case of `COc1ccc2ccccc2c1CN1CCN(C(=O)c2ccccc2F)CC1`, the survival is reported as inactive: 106%.
`O=c1c2sc3ccccc3c2n(Cc2ccccc2)c(=O)n1CCc1ccccc1` was tested, and the survival was inactive: 76%.
For `COc1ccc(C)cc1Nc1ncnc2c1c(-c1ccccc1)cn2-c1ccc(C)cc1`, the survival was inactive: 74%.
With `CCCCNc1ncnc2c1nnn2Cc1ccccc1Cl` the survival was inactive: 111%.
In the case of `O=C(NCC1CCCO1)c1ccc(Br)cc1` (stereo unspecified), the survival is reported as inactive: 133%.
For `COc1ccc(OC)c2sc(N3CCN(C(=O)C4COc5ccccc5O4)CC3)nc12` (stereo unspecified), the survival was inactive: 78%.
`COc1ccc(S(=O)(=O)N2CCC(C(=O)Nc3cc(C(F)(F)F)ccc3Cl)CC2)cc1` was tested, and the survival was inactive: 126%.
For `CCCOc1ccc(-c2cc(C(F)(F)F)c(C#N)c(SCCC(=O)O)n2)cc1`, the survival was inactive: 58%.
`COc1ccc(C2CC3(CC(C)(C)NC(=O)N3)Oc3cc(O)ccc32)cc1` (stereo unspecified) was tested, and the survival was inactive: 113%.
In the case of `CCCN(CCC)C(=O)Cn1c(=O)n(CCCCCC(=O)NCc2ccccc2Cl)c(=O)c2sccc21`, the survival is reported as inactive: 91%.
In the case of `Cc1ccc(S(=O)(=O)C(CNC(=O)COc2ccccc2)c2ccco2)cc1` (stereo unspecified), the survival is reported as inactive: 124%.
`CC(C)CCNC(=O)C(Cc1ccccc1)NS(=O)(=O)c1ccc2c(c1)c(=O)n(C)c(=O)n2C` (stereo unspecified) was tested, and the survival was inactive: 77%.
In the case of `Cc1cc(C)n(-c2nc3cc(Cl)ccc3nc2N2CCN(c3ccccc3F)CC2)n1`, the survival is reported as inactive: 68%.
With `CCCN1c2cccc3cccc(c23)S1(=O)=O` the survival was inactive: 103%.
`CS(=O)(=O)N1CCc2cc(C(=O)Nc3ccc(C(F)(F)F)cc3)ccc21` was tested, and the survival was inactive: 85%.
For `O=C(Nc1ccccc1C(=O)OCc1cc(=O)n2nc(C3CC3)sc2n1)c1cccc(F)c1`, the survival was inactive: 69%.
For `Cc1ccc(CNC(=O)CSc2nc3n[nH]c(C)c3c(=N)n2-c2ccccc2Cl)cc1`, the survival was inactive: 83%.
With `O=C(O)c1csc(Br)c1Br` the survival was inactive: 107%.
For `O=C(Nc1ccc(F)c(Cl)c1)N1CCC(CN2CCOCC2)CC1`, the survival was inactive: 80%.
`COc1ccccc1CNC(=O)CSc1nnc(C)c2c(C)n(-c3ccccc3)nc12` was tested, and the survival was inactive: 71%.
`CCOC(=O)c1ccc(NC(=O)C(CC)Sc2nc(N)cc(N)n2)cc1` (stereo unspecified) was tested, and the survival was inactive: 133%.
For `COCCNC(=O)c1ccc(-c2nc(CS(=O)(=O)c3ccccc3)c(C)o2)cc1`, the survival was inactive: 123%.
For `Cc1nc2sccn2c(=O)c1S(=O)(=O)Nc1cc(C(F)(F)F)ccc1Cl`, the survival was inactive: 78%.
For `Cc1ccccc1OCCCCn1nnc2sc3c(c2c1=O)CCC(C)C3` (stereo unspecified), the survival was inactive: 87%.
In the case of `CCOCCCn1c(SCC(=O)Nc2ccccc2Cl)nc2c(oc3ccccc32)c1=O`, the survival is reported as inactive: 85%.
For `Cc1ccc(CCNC(=O)c2ccc3c(c2)nc2n3CCOC2)cc1`, the survival was inactive: 82%.
For `OCCN(CCO)c1nc2ccccc2[nH]1`, the survival was inactive: 110%.
`CC(=O)N1CCCc2cc(S(=O)(=O)N3CCCC(C(=O)NCc4ccc(C)cc4)C3)ccc21` (stereo unspecified) was tested, and the survival was inactive: 77%.
`O=C(NN=C1CCCCC1)C1CC1c1ccccc1` (stereo unspecified) was tested, and the survival was inactive: 114%.
With `CCOc1ccc(NCc2nc3ccccc3n2CCOc2ccc(C)cc2)cc1` the survival was active: -20%.
In the case of `O=C(CSc1nc2c(c(=O)[nH]1)CN(Cc1ccc3c(c1)OCO3)CC2)Nc1ccccc1Cl`, the survival is reported as inactive: 81%.
For `CCc1ccc(-n2nc3ccc(NC(=O)COc4ccc(OC)cc4)cc3n2)cc1`, the survival was inactive: 95%.
In the case of `COc1cccc(Cn2c(CNS(=O)(=O)c3ccc(Cl)s3)nc3cccnc32)c1`, the survival is reported as inactive: 85%.
`CN(C)c1nc(N(C)C)nc(N2CC(=O)N(N)C2=N)n1` was tested, and the survival was inactive: 125%.
With `CCc1nn2c(=O)c(S(=O)(=O)Nc3ccc(C(C)C)cc3)c(C)nc2s1` the survival was inactive: 70%.
With `Cc1ccc(C)c(N2CCN(C(=O)C3CCC(CNS(=O)(=O)c4cccs4)CC3)CC2)c1` (stereo unspecified) the survival was inactive: 77%.
`CCC1CN(C(=O)N2CCC(C(=O)NCCc3ccc(OC)c(OC)c3)CC2)c2ccccc2O1` (stereo unspecified) was tested, and the survival was inactive: 80%.
`CCOC(=O)N1CCc2c(sc3c2c(=O)n(-c2ccc(CC)cc2)c(=O)n3Cc2cccc(Cl)c2)C1` was tested, and the survival was inactive: 81%.
For `Cc1ccc(CNC(=O)CSc2c(C)cnc3c2c(=O)n(C)c(=O)n3C)cc1`, the survival was inactive: 51%.
`CC1CCN(S(=O)(=O)c2ccc3nc(NCc4ccc(N(C)C)cc4)ccc3c2)CC1` was tested, and the survival was inactive: 65%.
With `Cc1ccc(C)c(N2CCN(C(=O)c3cc4cc5ccc(C)cc5nc4o3)CC2)c1` the survival was inactive: 84%.
For `O=S(=O)(c1ccc(S(=O)(=O)N2CCC3(CC2)OCCO3)cc1)N1CCCC1`, the survival was inactive: 105%.
With `Cc1ccc(NC(=O)C2CCN(S(=O)(=O)c3cccc4nsnc34)CC2)cc1` the survival was inactive: 89%.
